According to the supplement of paper PMC10126150:
Values marked as one replicate rest on one cluster of the flow cell; about a third of the high ones do not repeat.

The sequences below were run on ATP (assay: switch fluorescence ratio, 500 uM ATP over buffer (Cy3 cluster intensity, sum of 5 cycles each) (fold (ratio)); higher = stronger signal-on switching upon ATP binding; sequences stand for … in TCGTCGGCAGCGTCAGATGTGTATAAGAGACAGTTTTTTTTTTTTTTTTTTTTTTTTT…TC). Conditions: aptamer strand: ATP DNA aptamer (quencher-CACCTGGGGGAGTATTGCGGAGGAAGG + anchor), 100 nM annealed; ATP concentration: 500 uM; one replicate.
Summary of the method: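 Per cluster, summed Cy3 intensity from the target cycles was divided by that from the buffer cycles to give the fluorescence ratio, then averaged per switch-domain sequence. Clusters outside 100-1000 RFU were excluded. The Cy3-labelled switching-strand clusters, on a modified Illumina MiSeq flow-cell, were annealed to 100 nM quencher-labelled ATP aptamer and imaged in selection buffer, then after 15 min with 500 uM ATP at 22 °C, for five cycles with NaOH stripping and re-annealing between them.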
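Note: ATP exposure 15 min at 22 °C before imaging.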

| Sequence | switch fluorescence ratio |
| --- | --- |
| GAATGGCCGG | 1.02 |
| GAATGGCGCG | 0.984 |
| GAATGGTCTG | 0.98 |
| GAATGTCAAG | 0.981 |
| GAATGTGCGG | 1.01 |
| GAATGTGCTT | 0.958 |
| GAATGTGGG | 0.968 |
| GAATGTGGTT | 0.985 |
| GAATTACGGA | 1.06 |
| GAATTATCT | 1.01 |
| GAATTCCTT | 1.01 |
| GAATTGACAT | 1.03 |
| GAATTGAGGT | 0.976 |
| GAATTGCATA | 0.988 |
| GAATTGGGAC | 1.01 |
| GAATTTAAGG | 0.997 |
| GAATTTGACC | 0.972 |
| GACAAAAAGA | 0.991 |
| GACAAAAATG | 1.02 |
| GACAAACTTG | 1.19 |
| GACAACGGCT | 1.13 |
| GACAATTAGG | 1.01 |
| GACACAGTTT | 1.08 |
| GACACATTTC | 1.1 |
| GACACCCGTA | 0.994 |
| GACACCGGGG | 0.891 |

| Sequence | switch fluorescence ratio |
| --- | --- |
| GACACGACAC | 2.09 |
| GACACGGGAT | 0.952 |
| GACACTCAGC | 1.02 |
| GACACTCTGG | 0.958 |
| GACAGAAATG | 0.979 |
| GACAGACGGA | 1.33 |
| GACAGCACAT | 1.48 |
| GACAGGATTT | 1 |
| GACAGGGGAT | 1.06 |
| GACAGTCTGT | 0.985 |
| GACAGTGAGT | 1.01 |
| GACATAAC | 1.1 |
| GACATATATA | 1.01 |
| GACATGCGAA | 1.03 |
| GACATTACGA | 1.35 |
| GACATTACGT | 1.44 |
| GACATTGA | 1.02 |
| GACATTGCTT | 0.989 |
| GACATTTAGA | 1.01 |
| GACCAAAAGC | 1.02 |
| GACCAAGGGG | 1.15 |
| GACCATATGC | 1.37 |
| GACCCAACAA | 1.04 |
| GACCCCACGA | 1.41 |
| GACCCCGGTC | 0.992 |
| GACCGACGC | 2.84 |

| Sequence | switch fluorescence ratio |
| --- | --- |
| GACCGATTAC | 2.06 |
| GACCGCATGA | 2 |
| GACCGCGTTT | 1.03 |
| GACCGGCGGC | 0.938 |
| GACCGGGGAT | 0.992 |
| GACCGTGACC | 1.22 |
| GACCTAGCAG | 0.995 |
| GACCTAGTAT | 1.01 |
| GACCTATGGG | 1.11 |
| GACCTTACAC | 1.39 |
| GACCTTTCGC | 1.58 |
| GACGAAACGG | 1.09 |
| GACGAATTAA | 1.13 |
| GACGACGTTC | 1.85 |
| GACGATAATA | 1.29 |
| GACGCCAGTT | 1.02 |
| GACGCCCACG | 0.99 |
| GACGGAAGTA | 1.02 |
| GACGGAGAAG | 1.01 |
| GACGGCCATT | 1.12 |
| GACGGCCCTG | 0.946 |
| GACGGCTAAC | 1.16 |
| GACGGCTAAG | 0.976 |
| GACGGGGTAA | 0.959 |
| GACGGGGTTG | 1.03 |
| GACGTAACGT | 1.06 |

| Sequence | switch fluorescence ratio |
| --- | --- |
| GACGTAATTG | 1.03 |
| GACGTGCTTT | 1.02 |
| GACGTTAGTA | 1.03 |
| GACGTTCATT | 1.05 |
| GACGTTGATA | 1.03 |
| GACGTTTGAG | 0.981 |
| GACTACAAAT | 1.06 |
| GACTAGCCCG | 0.948 |
| GACTAGTTGC | 1 |
| GACTATCAAG | 1.02 |
| GACTCAGCCA | 1.55 |
| GACTCAGGGA | 0.989 |
| GACTCCATTC | 1.28 |
| GACTCCTTAT | 1.08 |
| GACTCTAGCA | 1.49 |
| GACTCTCTTG | 1 |
| GACTGACTCT | 1.12 |
| GACTGAGTGG | 0.976 |
| GACTGATATG | 0.991 |
| GACTGATGCA | 0.967 |
| GACTGATTAC | 1.17 |
| GACTGATTTT | 0.987 |
| GACTGCGAAC | 2.54 |
| GACTGGATG | 1.03 |
| GACTGGTACC | 1.07 |
| GACTGTCTAA | 0.984 |

| Sequence | switch fluorescence ratio |
| --- | --- |
| GACTTAAAT | 0.99 |
| GACTTACAGG | 1.07 |
| GACTTACCGT | 1.17 |
| GACTTATATC | 1.01 |
| GACTTCACT | 1.21 |
| GACTTCCGTT | 1.15 |
| GACTTCCTAT | 1.1 |
| GACTTCGATA | 1.11 |
| GACTTGCTCC | 1.35 |
| GACTTTACGT | 1.12 |
| GACTTTGCGG | 1.02 |
| GAGAAACGAT | 0.974 |
| GAGAAAGGAT | 0.992 |
| GAGAAGCATG | 1.02 |
| GAGAAGGTGT | 1.14 |
| GAGAATCCC | 0.961 |
| GAGACAAGGT | 1.01 |
| GAGACATGAG | 1.03 |
| GAGACCGCAT | 4.45 |
| GAGACCGCC | 1.33 |
| GAGACTCAAC | 1.01 |
| GAGACTGCCC | 1.06 |
| GAGAGATGTG | 0.985 |
| GAGAGCCGCA | 1.05 |
| GAGAGCTAC | 1.13 |
| GAGAGCTAGA | 1.01 |

| Sequence | switch fluorescence ratio |
| --- | --- |
| GAGAGGGACT | 0.994 |
| GAGAGTGAGG | 0.97 |
| GAGATATCCT | 0.999 |
| GAGATCTGTA | 0.983 |
| GAGATGCACC | 1.02 |
| GAGATGGTCC | 1.04 |
| GAGATTCGAG | 0.951 |
| GAGCAAATG | 1.13 |
| GAGCAAATGA | 1.23 |
| GAGCACAGAA | 1.05 |
| GAGCACCCGT | 1.01 |
| GAGCACCTAA | 1.06 |
| GAGCAGAGTA | 1.01 |
| GAGCAGTCG | 1.03 |
| GAGCATGGTG | 0.984 |
| GAGCCTATGG | 1.04 |
| GAGCGCTTCA | 1 |
| GAGCGGGGAG | 1.03 |
| GAGCGTTACT | 1.48 |
| GAGCGTTGAT | 1.05 |
| GAGCTTCGGA | 0.963 |
| GAGCTTGACT | 0.984 |
| GAGCTTTATA | 1.04 |
| GAGCTTTCAC | 1.02 |
| GAGCTTTGTG | 0.979 |
| GAGGAAGGGC | 0.992 |

| Sequence | switch fluorescence ratio |
| --- | --- |
| GAGGACGTCA | 0.956 |
| GAGGAGAAAA | 0.949 |
| GAGGAGAGAT | 0.949 |
| GAGGAGGACC | 1.08 |
| GAGGAGGCCT | 0.941 |
| GAGGCAATGT | 5.07 |
| GAGGCATCAG | 1.02 |
| GAGGCCCGTC | 0.958 |
| GAGGCCCTGG | 1.04 |
| GAGGCGCCTG | 0.931 |
| GAGGCGGGCT | 0.984 |
| GAGGCGGTGC | 1.42 |
| GAGGCGTCCC | 1 |
| GAGGCGTTAA | 1.07 |
| GAGGCTTATG | 1.02 |
| GAGGGAAAGT | 1 |
| GAGGGATAAT | 0.964 |
| GAGGGATAGT | 0.943 |
| GAGGGATGG | 1 |
| GAGGGCAAAG | 0.977 |
| GAGGGCGTAC | 1.05 |
| GAGGGGTACG | 1.06 |
| GAGGGTCTAA | 1.02 |
| GAGGGTGCTA | 0.996 |
| GAGGGTGTTT | 1.05 |
| GAGGGTTTGC | 0.968 |

| Sequence | switch fluorescence ratio |
| --- | --- |
| GAGGTACTCA | 1.01 |
| GAGGTCATT | 1.01 |
| GAGGTCCCGG | 1.01 |
| GAGGTGAACC | 0.934 |
| GAGGTGAGGT | 0.978 |
| GAGGTGATT | 0.965 |
| GAGGTGGAGT | 1.02 |
| GAGGTGGATT | 1.01 |
| GAGGTTGGAA | 0.982 |
| GAGGTTGGG | 1.01 |
| GAGGTTTTAC | 1.01 |
| GAGTAAAAGC | 1.02 |
| GAGTAAACGA | 1.03 |
| GAGTAAAGGT | 1 |
| GAGTACAAGT | 1.01 |
| GAGTACGATG | 0.992 |
| GAGTACGGTT | 0.972 |
| GAGTAGCAAG | 1.03 |
| GAGTAGCTCG | 0.99 |
